From article PMC4336329 (PLoS ONE, 2015)
The campaign covered roughly 310,000 compounds. About 14,000 (4.5%) showed an effect of 50% or more. Effects have a minus sign here. This is one part of the list.

Molecular target: human ether-à-go-go-related gene (hERG) potassium channel (human, UniProt Q12809)
Assay: primary screen, population patch clamp on CHO cells stably expressing hERG
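Note: peak tail current of the secondary pulse compared with the same well before compound.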

human ether-à-go-go-related gene (hERG) potassium channel, sequence (Q12809 whole entry, looked up): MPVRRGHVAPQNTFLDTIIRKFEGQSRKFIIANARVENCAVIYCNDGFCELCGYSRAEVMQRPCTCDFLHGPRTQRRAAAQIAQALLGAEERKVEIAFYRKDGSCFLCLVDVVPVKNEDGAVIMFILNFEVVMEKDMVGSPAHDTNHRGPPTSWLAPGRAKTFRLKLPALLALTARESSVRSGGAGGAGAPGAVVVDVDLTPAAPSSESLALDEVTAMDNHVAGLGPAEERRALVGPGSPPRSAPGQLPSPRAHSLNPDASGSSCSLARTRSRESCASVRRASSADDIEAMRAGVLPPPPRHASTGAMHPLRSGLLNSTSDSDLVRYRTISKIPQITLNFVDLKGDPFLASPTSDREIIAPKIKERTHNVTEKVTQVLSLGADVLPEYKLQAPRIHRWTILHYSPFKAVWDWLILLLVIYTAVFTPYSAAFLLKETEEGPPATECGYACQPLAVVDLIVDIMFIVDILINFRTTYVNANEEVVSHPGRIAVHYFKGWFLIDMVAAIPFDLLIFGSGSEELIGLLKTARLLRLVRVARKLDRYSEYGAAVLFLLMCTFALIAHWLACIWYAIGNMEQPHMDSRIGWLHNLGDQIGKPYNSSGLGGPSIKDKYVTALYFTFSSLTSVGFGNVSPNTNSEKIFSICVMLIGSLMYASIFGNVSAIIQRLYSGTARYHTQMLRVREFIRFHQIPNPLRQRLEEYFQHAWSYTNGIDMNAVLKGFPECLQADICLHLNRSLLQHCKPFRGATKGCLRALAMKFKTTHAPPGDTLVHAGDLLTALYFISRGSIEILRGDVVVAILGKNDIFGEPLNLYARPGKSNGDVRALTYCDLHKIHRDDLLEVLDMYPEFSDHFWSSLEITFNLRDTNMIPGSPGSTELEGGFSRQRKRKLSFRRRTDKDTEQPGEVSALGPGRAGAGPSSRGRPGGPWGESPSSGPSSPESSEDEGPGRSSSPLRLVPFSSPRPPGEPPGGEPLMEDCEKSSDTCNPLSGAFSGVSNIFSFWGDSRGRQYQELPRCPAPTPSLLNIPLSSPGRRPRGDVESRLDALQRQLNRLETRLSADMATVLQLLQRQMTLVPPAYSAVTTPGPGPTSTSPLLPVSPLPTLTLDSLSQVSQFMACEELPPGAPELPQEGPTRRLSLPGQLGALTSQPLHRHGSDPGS

SMILES	hERG current change (%, negative = inhibition) at 10uM
O=C(CNC(=O)c1ccco1)OC(C(=O)c1ccccc1)c1ccccc1 (stereo not drawn)	0.438%
O=C(NC1CC2CCCC(C1)N2C(=O)Nc1ccccc1Cl)C1CC1 (stereo not drawn)	28.8%
CC(=O)c1cc(N2CCC(C(=O)O)CC2)ccc1[N+](=O)[O-]	11.2%
Nc1c(C(=O)NCCc2ccc(Cl)cc2)sc2ccc(S(=O)(=O)N3CCCCC3)cc12	17.8%
COc1ccccc1OCCNC(=O)CCNC(=O)c1ccccc1OC	13.2%
COc1cc2c(cc1OC)[C@@H]1Cc3ccc(OC)c(OC)c3CN1CC2.Cl	1.19%
CCOC(=O)C1(Cc2ccc(OC)cc2)CCN(C(=O)CC2CCC(=O)N2)CC1 (stereo not drawn)	10.2%
Cc1ccc(-c2cc(C(=O)NCc3ccco3)no2)cc1	17.2%
CCOC(=O)c1c2n(c3ccc(OC(C)=O)cc13)CCC2	-11.1%
COc1ccc(S(=O)(=O)Nc2ccc(F)cc2)cc1N(C)S(=O)(=O)c1ccc(Cl)cc1	3.39%
COc1ccc(NC(=O)c2cc(C3CC3)nc3c2cnn3C(C)C)cc1OC	-6.44%
Cc1oc(-c2cc(F)ccc2F)nc1CN1CCN(C)C(=O)[C@@H]1C	8.32%
Cl.O=c1c2[nH]c3ccc(F)cc3c2ncn1C1CCCCC1	29%
O=C(Nc1ccccc1C(=O)O)c1cccc(F)c1	4.67%
CCCC(c1nnnn1C(C)(C)CC)N(CCCO)Cc1cc2cc(C)cc(C)c2[nH]c1=O (stereo not drawn)	-37.7%
COc1ccc(N(Cc2cc(=O)[nH]c3ccccc23)C(=O)c2ccco2)cc1	-30%
CCc1ccc(C(=O)CN2C(=O)NC(C)(c3ccc(C)cc3)C2=O)cc1 (stereo not drawn)	8.2%
CC(C)Cc1cc(C(=O)Nc2cccnc2)no1	-29.7%
O=C(/C=C/c1ccccc1F)c1ccoc1	-8.68%
O=S(=O)(NCc1ccccn1)c1cc(Cl)ccc1Cl	8.35%
COc1ccc(C(CNC(=O)CNS(=O)(=O)c2ccc(NC(C)=O)cc2)N2CCOCC2)cc1 (stereo not drawn)	3.95%
CCOC(=O)Cc1nn(Cc2ccc(Cl)cc2)c(=O)c2ccccc12	5.17%
Cc1ccc(S(=O)(=O)N/N=C2/CCCCC2C2CCCCC2)cc1[N+](=O)[O-] (stereo not drawn)	-5.07%
Cc1ccccc1-c1nc2sc3c(c2c(=O)o1)CCC3	9.93%
